# Whole data set: some 2,900 compounds, median “IRF Lucia reporter activity, fold change vs agonist alone” near 0.9, cut for the highest 2% near 2.8. The list shows a part of the results.
# Assays:
# RAW-Dual [1] = experiment: IRF Lucia reporter activity, fold change vs agonist alone; cytotoxicity flag (confluency mask): not cytotoxic; higher = enhanced IRF activity
# Outline: (§1)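 Supernatant from RAW-Dual macrophages was read after 20 hours for IRF by QuantiLuc luminescence and for NF-κB by QuantiBlue absorbance at 620 nm. The cells (50,000 cells/well in DMEM, 384-well plates, 37 °C, 5% CO2) had received 50 nL of library stock by pin tool and, 1 h later, a PRR agonist. Reporter activity is expressed relative to agonist-alone wells as fold change, and wells were flagged cytotoxic if IncuCyte confluency was under 70% of agonist controls in both mask sets.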
# RAW-Dual [2] = experiment: IRF Lucia reporter activity, fold change vs agonist alone; higher = enhanced IRF activity; settings: library stock concentration (final ~1000-fold dilution): 10 mM, agonist: MPLA (TLR4) […]
# Outline: as §1
# RAW-Dual [3] = experiment: IRF Lucia reporter activity, fold change vs agonist alone; cytotoxicity flag (confluency mask): cytotoxic (confluency <70% of control); higher = enhanced IRF activity
# Outline: as §1
# [4] = agonist: 3'3'-cGAMP (STING) 10 ug/mL
# [5] = cytotoxicity flag (confluency mask): not cytotoxic
structure (smiles),measurement,setting,value
CC(N)C12CC3CC(CC(C3)C1)C2 (centres undefined) (library stock concentration (final ~1000-fold dilution): 10 mM),IRF Lucia reporter activity,RAW-Dual [1]; [4],1.04
same,IRF Lucia reporter activity,RAW-Dual [1]; agonist: LPS (TLR4) 0.1 ug/mL,0.96
N#Cc1ccc(Oc2ccc3c(c2)COB3O)cc1,IRF Lucia reporter activity,RAW-Dual [2]; [5],1.08
N#Cc1ccc(Oc2ccc3c(c2)COB3O)cc1 (library stock concentration (final ~1000-fold dilution): 10 mM),IRF Lucia reporter activity,RAW-Dual [1]; [4],0.977
same,IRF Lucia reporter activity,RAW-Dual [1]; agonist: LPS (TLR4) 0.1 ug/mL,1.46
C=CC(=O)N1CC(N2CCN(C(=O)CNc3cc(C4(C)CC4)c(Cl)cc3O)CC2)C1 (library stock concentration (final ~1000-fold dilution): 10 mM),IRF Lucia reporter activity,RAW-Dual [1]; [4],0.269
same,IRF Lucia reporter activity,RAW-Dual [1]; agonist: LPS (TLR4) 0.1 ug/mL,0.547
CCCCCCOC(=O)N=C(N)c1ccc(NCc2nc3cc(C(=O)N(CCC(=O)OCC)c4ccccn4)ccc3n2C)cc1 (library stock concentration (final ~1000-fold dilution): 10 mM),IRF Lucia reporter activity,RAW-Dual [1]; [4],0.764
same,IRF Lucia reporter activity,RAW-Dual [1]; agonist: LPS (TLR4) 0.1 ug/mL,1.22
CCCCCCOC(=O)N=C(N)c1ccc(NCc2nc3cc(C(=O)N(CCC(=O)OCC)c4ccccn4)ccc3n2C)cc1,IRF Lucia reporter activity,RAW-Dual [2]; [5],1.09
O=C(O)CC[C@@H](O)C(=O)O (library stock concentration (final ~1000-fold dilution): 10 mM water),IRF Lucia reporter activity,RAW-Dual [1]; [4],1.24
same,IRF Lucia reporter activity,RAW-Dual [1]; agonist: LPS (TLR4) 0.1 ug/mL,0.813
CC(C)(C)c1cc(O)ccc1O (library stock concentration (final ~1000-fold dilution): 10 mM),IRF Lucia reporter activity,RAW-Dual [1]; [4],0.278
same,IRF Lucia reporter activity,RAW-Dual [1]; agonist: LPS (TLR4) 0.1 ug/mL,0.548
C[C@H]1O[C@@H](O[C@H]2CC[C@@]3(C)[C@@H](CC[C@]4(C)[C@@H]3C=C[C@]35OC[C@@]6(CCC(C)(C)C[C@H]63)[C@H](O)C[C@]54C)[C@]2(C)CO)[C@H](O)[C@@H](O[C@@H]2O[C@H](CO)[C@@H](O)[C@H](O)[C@H]2O)[C@H]1O (library stock concentration (final ~1000-fold dilution): 10 mM),IRF Lucia reporter activity,RAW-Dual [3]; [4],0.101
same,IRF Lucia reporter activity,RAW-Dual [3]; agonist: LPS (TLR4) 0.1 ug/mL,0.0686
CN(C)c1ccc2c(c1)Sc1cc(N(C)C)ccc1N2 (library stock concentration (final ~1000-fold dilution): 10 mM),IRF Lucia reporter activity,RAW-Dual [1]; [4],0.0324
same,IRF Lucia reporter activity,RAW-Dual [1]; agonist: LPS (TLR4) 0.1 ug/mL,0.632
CCCc1nc(C(C)(C)O)c(C(=O)O)n1Cc1ccc(-c2ccccc2-c2nnn[nH]2)cc1,IRF Lucia reporter activity,RAW-Dual [2]; [5],1.06
CCCc1nc(C(C)(C)O)c(C(=O)O)n1Cc1ccc(-c2ccccc2-c2nnn[nH]2)cc1 (library stock concentration (final ~1000-fold dilution): 10 mM),IRF Lucia reporter activity,RAW-Dual [1]; [4],1.02
same,IRF Lucia reporter activity,RAW-Dual [1]; agonist: LPS (TLR4) 0.1 ug/mL,0.811
CN(C)CC1CCn2cc(c3ccccc32)C2=C(C(=O)NC2=O)c2cn(c3ccccc23)CCO1.Cl (centres undefined) (library stock concentration (final ~1000-fold dilution): 10 mM),IRF Lucia reporter activity,RAW-Dual [3]; [4],0.0473
same,IRF Lucia reporter activity,RAW-Dual [3]; agonist: LPS (TLR4) 0.1 ug/mL,0.188
CC(NC(=O)CCc1nc2ccccc2c(=O)[nH]1)c1ccccc1 (centres undefined) (library stock concentration (final ~1000-fold dilution): 10 mM),IRF Lucia reporter activity,RAW-Dual [1]; [4],1.08
same,IRF Lucia reporter activity,RAW-Dual [1]; agonist: LPS (TLR4) 0.1 ug/mL,0.893
CC(NC(=O)CCc1nc2ccccc2c(=O)[nH]1)c1ccccc1 (centres undefined),IRF Lucia reporter activity,RAW-Dual [2]; [5],0.927
COc1nc(-c2ccc3c(c2)OCO3)n(-c2ccc(NC(=O)CSc3ccccc3)cc2)n1 (library stock concentration (final ~1000-fold dilution): 10 mM),IRF Lucia reporter activity,RAW-Dual [1]; [4],0.59
same,IRF Lucia reporter activity,RAW-Dual [1]; agonist: LPS (TLR4) 0.1 ug/mL,1.14
Cl.Clc1cccc(-c2nnnn2Cc2cccnc2)c1Cl (library stock concentration (final ~1000-fold dilution): 10 mM),IRF Lucia reporter activity,RAW-Dual [1]; [4],0.707
same,IRF Lucia reporter activity,RAW-Dual [1]; agonist: LPS (TLR4) 0.1 ug/mL,0.829
CCS(=O)(=O)Nc1ccc2c(c1)/C(=C(/Nc1ccc(CN3CCCCC3)cc1)c1ccccc1)C(=O)N2 (library stock concentration (final ~1000-fold dilution): 10 mM),IRF Lucia reporter activity,RAW-Dual [3]; [4],0.0206
same,IRF Lucia reporter activity,RAW-Dual [3]; agonist: LPS (TLR4) 0.1 ug/mL,0.0188
CCS(=O)(=O)Nc1ccc2c(c1)/C(=C(/Nc1ccc(CN3CCCCC3)cc1)c1ccccc1)C(=O)N2,IRF Lucia reporter activity,RAW-Dual [2]; cytotoxicity flag (confluency mask): cytotoxic (confluency <70% of control),0.0174
CCOC(=O)C(CCc1ccccc1)NC1CCc2ccccc2N(CC(=O)O)C1=O.Cl (centres undefined) (library stock concentration (final ~1000-fold dilution): 10 mM),IRF Lucia reporter activity,RAW-Dual [1]; [4],0.935
same,IRF Lucia reporter activity,RAW-Dual [1]; agonist: LPS (TLR4) 0.1 ug/mL,1.03
CCOC(=O)C(CCc1ccccc1)NC1CCc2ccccc2N(CC(=O)O)C1=O.Cl (centres undefined),IRF Lucia reporter activity,RAW-Dual [2]; [5],0.964
O=C(Nc1ccc(-c2ccnc(Nc3ccc(N4CCOCC4)cc3)n2)cc1)C1CCCN1 (centres undefined),IRF Lucia reporter activity,RAW-Dual [2]; [5],0.04
O=C(Nc1ccc(-c2ccnc(Nc3ccc(N4CCOCC4)cc3)n2)cc1)C1CCCN1 (centres undefined) (library stock concentration (final ~1000-fold dilution): 10 mM),IRF Lucia reporter activity,RAW-Dual [1]; [4],0.0117
same,IRF Lucia reporter activity,RAW-Dual [1]; agonist: LPS (TLR4) 0.1 ug/mL,0.0373
COc1ccc2[nH]c([S+]([O-])Cc3ncc(C)c(OC)c3C)nc2c1 (centres undefined),IRF Lucia reporter activity,RAW-Dual [2]; [5],0.713
COc1ccc2[nH]c([S+]([O-])Cc3ncc(C)c(OC)c3C)nc2c1 (centres undefined) (library stock concentration (final ~1000-fold dilution): 10 mM),IRF Lucia reporter activity,RAW-Dual [1]; [4],0.925
same,IRF Lucia reporter activity,RAW-Dual [1]; agonist: LPS (TLR4) 0.1 ug/mL,0.957
N#Cc1cc(N2CCC(C(=O)N3N=CCC3c3cc(F)cc(F)c3)CC2)ncn1 (centres undefined) (library stock concentration (final ~1000-fold dilution): 10 mM),IRF Lucia reporter activity,RAW-Dual [1]; [4],0.715
same,IRF Lucia reporter activity,RAW-Dual [1]; agonist: LPS (TLR4) 0.1 ug/mL,0.991
